# Data from paper PMC4336329 (PLoS ONE, 2015).
# Hit rate of the full screen: of about 310,000 compounds, about 14,000 (4.5%) showed an effect of 50% or more. Effects have a minus sign here. The list shows a part of the results.
# Target: human ether-à-go-go-related gene (hERG) potassium channel (human, UniProt Q12809)
# Experiment: primary screen, population patch clamp on CHO cells stably expressing hERG
# 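Also: peak tail current of the secondary pulse compared with the same well before compound.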
# Chain of human ether-à-go-go-related gene (hERG) potassium channel (Q12809 whole entry, looked up): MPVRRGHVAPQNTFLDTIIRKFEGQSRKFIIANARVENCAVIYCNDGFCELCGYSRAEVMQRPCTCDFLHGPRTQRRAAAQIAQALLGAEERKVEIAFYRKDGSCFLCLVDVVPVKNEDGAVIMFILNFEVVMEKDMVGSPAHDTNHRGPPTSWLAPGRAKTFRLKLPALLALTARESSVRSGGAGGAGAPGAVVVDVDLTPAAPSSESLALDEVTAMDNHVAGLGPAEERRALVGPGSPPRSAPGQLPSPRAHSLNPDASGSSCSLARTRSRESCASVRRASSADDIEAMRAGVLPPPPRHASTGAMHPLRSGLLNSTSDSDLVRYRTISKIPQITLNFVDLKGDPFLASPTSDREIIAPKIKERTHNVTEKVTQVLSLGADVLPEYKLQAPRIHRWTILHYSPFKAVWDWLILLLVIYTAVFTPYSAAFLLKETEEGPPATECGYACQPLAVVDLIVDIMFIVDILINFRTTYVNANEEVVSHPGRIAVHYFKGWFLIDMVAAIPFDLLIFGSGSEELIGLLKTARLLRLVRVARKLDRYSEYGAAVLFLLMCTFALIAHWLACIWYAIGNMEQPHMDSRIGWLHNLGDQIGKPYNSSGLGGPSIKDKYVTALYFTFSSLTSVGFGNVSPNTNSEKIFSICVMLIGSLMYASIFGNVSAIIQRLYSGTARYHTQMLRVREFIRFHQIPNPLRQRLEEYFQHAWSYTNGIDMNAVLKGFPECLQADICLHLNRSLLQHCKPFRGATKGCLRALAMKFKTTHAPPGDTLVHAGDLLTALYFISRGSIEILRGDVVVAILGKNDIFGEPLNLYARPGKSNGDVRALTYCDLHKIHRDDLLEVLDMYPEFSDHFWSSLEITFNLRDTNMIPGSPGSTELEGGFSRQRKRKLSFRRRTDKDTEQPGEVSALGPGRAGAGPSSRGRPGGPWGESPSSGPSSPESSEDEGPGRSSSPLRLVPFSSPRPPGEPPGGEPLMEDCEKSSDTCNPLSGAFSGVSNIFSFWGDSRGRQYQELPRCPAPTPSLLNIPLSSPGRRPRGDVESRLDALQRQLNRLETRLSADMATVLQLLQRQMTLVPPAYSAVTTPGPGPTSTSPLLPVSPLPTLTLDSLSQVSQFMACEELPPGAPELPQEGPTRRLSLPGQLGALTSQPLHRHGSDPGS
row,Compound,"hERG current change (%, negative = inhibition) at 10uM"
1,CN(Cc1cc2ccccc2[nH]c1=O)C(=O)C1CCCCC1,-71.6%
2,COC(=O)C1=C(c2c(C)noc2C)C[C@@H]2CC[C@H]1N2C(=O)NCCO,20%
3,C=CCn1c(SCC(=O)N2CCc3ccccc3C2)nc2sc(CC)cc2c1=O,-34.5%
4,CCC(C)NC(=O)CN(C1CCCCC1)S(=O)(=O)c1ccc(F)cc1 (stereo not shown),8.05%
5,C=CCn1c(SCC(=O)N2CCCC2=O)nc2sc(CC)cc2c1=O,-70.9%
6,O=C(Oc1ccccc1Cl)c1ccc2c(=O)n3c(nc2c1)CCC3,3.84%
7,Cc1c(O)c(S(=O)(=O)c2ccccc2)c(=O)n(-c2ccccc2)c1-c1ccccc1,3.84%
8,CC1(c2ccc(OC(F)F)cc2)NC(=O)N(/N=C/c2c(O)ccc3ccccc23)C1=O (stereo not shown),2.07%
9,COc1cc(C)c(C)cc1S(=O)(=O)N1CCN(Cc2ccccc2)CC1,-17.9%
10,COCCOC(=O)C1=C(C)N=C2SCCC(=O)N2C1c1cccs1 (stereo not shown),13.8%
11,CCCCc1cc(=O)oc2cc(OCC(=O)N3CCC(C(N)=O)CC3)ccc12,-4.46%
12,O=C(NCCNC(=O)c1cccs1)c1ccco1,16.8%
13,CCOc1ccc(S(=O)(=O)N2CCN(C(=O)CCOc3ccccc3C)CC2)cc1,-25.6%
14,COc1ccc(C2OC3=C(Nc4cc(C)c(C)cc4N3)C2=O)cc1 (stereo not shown),25.4%
15,COc1ccc(-n2nnnc2SCC(=O)Nc2ccc3c(c2)OCCO3)cc1OC,1.87%
16,Nc1cc(C(=O)Nc2ccc(Cl)cc2)ccc1N1CC2CC(C1)c1cccc(=O)n1C2 (stereo not shown),-62.1%
17,CC1(C)Cc2c(sc3nnn(CC(=O)Nc4ccccc4)c(=O)c23)CO1,-11.6%
18,O=C(NCC1CCCCC1)c1ccco1,7.39%
19,COc1ccc(CCNC(=O)c2ccc(NS(=O)(=O)c3ccc4[nH]c(=O)[nH]c4c3)cc2)cc1,13.2%
20,Cc1nc(-c2ccccc2)sc1-c1nc(-c2ccncc2)ncc1S(=O)(=O)c1ccccc1,-6.61%

row,Compound,"hERG current change (%, negative = inhibition) at 10uM"
1,Cn1c(=O)c2c(SCC(=O)N3CCOCC3)nc(-c3ccccc3Cl)nc2n(C)c1=O,-4.14%
2,CCCNC(=O)C1CC2Cn3c(nc4ccccc43)C2N1C (stereo not shown),12.8%
3,O=C(Nc1nc2c(Cl)cccc2s1)c1ccc(Br)o1,-7.37%
4,O=C(CCC(=O)Nc1ccccc1Cl)NNC(=O)c1ccccc1[N+](=O)[O-],21.5%
5,Cc1ccc2nc(SCC(=O)NCc3ccco3)c(C)cc2c1,7.89%
6,O=C(N/N=C/c1cccc(Cl)c1)C1CCCC1,14.6%
7,Cc1ccc2nc(/C(C#N)=C/c3ccc(-c4cccc([N+](=O)[O-])c4)o3)[nH]c2c1,-3.95%
8,Cn1c2ccccc2c2nnc(SC3CCOC3=O)nc21 (stereo not shown),-11.1%
9,COc1ccc(NC(=O)c2c3c(nc4ccccc24)CCC3)cc1,10.1%
10,O=C(NN1CCOCC1)c1cccc(Cl)c1,2.42%
11,COc1ccc(-c2csc(NC(=O)CSc3nc(C)cs3)n2)cc1,8.6%
12,CSc1nnc(NC(=O)c2ccco2)s1,15.8%
13,CCc1nnc(NC(=O)CSc2nc3ccccc3c(=O)n2CCCOC)s1,-0.908%
14,COC(=O)c1c(-c2cccs2)csc1NC(=O)c1cccnc1,-1.09%
15,Cc1nc2c(C)[n+](CC(=O)c3ccccc3)ccc2n1C.[Br-],11.7%
16,COc1ccc(Cl)cc1-c1nc(SCC(=O)N(C)C)n[nH]1,10.5%
17,COc1ccccc1NS(=O)(=O)c1cc(NC(=O)C(C)(C)C)ccc1N1CCOCC1,-36.4%
18,Cc1ccccc1NC(=O)COc1cccc2c1CCNC2=O,-3.93%
19,NC(=O)NC(=O)CSc1nc(C2CCCCC2)n(-c2ccccc2)n1,18.7%
20,COc1cc(Cl)c(C)cc1NC(=O)CCCN1C(=O)CCC1=O,2.41%

row,Compound,"hERG current change (%, negative = inhibition) at 10uM"
1,CCN(CC)c1nc2n(c(=O)n1)CCO2,8.24%
2,COc1ccc(-c2csc(NC(CO)c3nc4ccccc4n3Cc3ccc(C)cc3)n2)cc1 (stereo not shown),12.4%
3,Cc1ccc(NC(=O)c2ccc(NS(=O)(=O)/C=C/c3ccccc3)cc2)nc1,0.977%
4,CC(=O)NC(CC(=O)Oc1ccc(C)cc1Br)c1ccccc1 (stereo not shown),-14%
5,Cc1ccnc(NS(=O)(=O)c2ccc(CC(C)C)cc2)c1,9.2%
6,COC(=O)c1cc(S(=O)(=O)N2c3ccccc3CC2C)c[nH]1 (stereo not shown),-12.3%
7,CCOc1ccc(C(=O)Oc2cc(C)[nH]c(=O)c2[N+](=O)[O-])cc1,9.6%
8,Cc1ccc(Cl)cc1NC(=O)C(=O)N1CCCCC1,13.4%
9,COC(=O)c1ccccc1NC(=O)CN1CCC(n2nnc3cc(F)ccc32)CC1,-14.3%
10,Cn1ccc(/C=N/N=C2/NC(=O)CS2)n1,5.65%
11,CCCCC(=O)Nc1cccc(NC(=O)C(C)C)c1,13.8%
12,CCC1CC(/C(C)=N/NC(N)=O)OC1=O (stereo not shown),9.19%
13,CC(C)(C)c1nc(NCCN2CCOCC2)c2nnn(Cc3ccccc3Cl)c2n1,10.7%
14,CC(C)CCN1C(=O)c2ccc(C(=O)N3CCCCC3)cc2C1=O,-6.98%
15,COc1ccc(S(=O)(=O)N2CCCC(C(=O)NCC3CCCO3)C2)cc1OC (stereo not shown),11%
16,CC1(C)CC(=O)C=C(Nc2ccc3c(c2)CCC3)C1,-2.73%
17,C[C@H](NC(=O)[C@@H]1CSC2c3ccccc3C(=O)N21)C(=O)NC1CCCC1 (stereo partly shown),10.5%
18,CC1=C(C(=O)NCc2ccc(Cl)cc2)C2(CCC(C)CC2)OC1=O (stereo not shown),7.11%
